This passage reports EC50 results from PMC4778918, “Signal Transduction at the Domain Interface of Prokaryotic Pentameric Ligand-Gated Ion Channels” (PLoS Biology, 2016).

This assay has as its target ELIC T28D (Dickeya chrysanthemi, UniProt P0C7B7, INS163G/T28D). The format is cell-based, Erwinia chrisanthemi. Conditions: ELIC T28D in X. laevis oocytes, two-electrode voltage clamp, 0.5 mM Ca2+; read-out: EC50 of channel activation. (In general: Two-electrode voltage clamp holds a large cell at a set potential and records current.)

pEC50: −log10 of the molar value.

As a reminder, the pEC50 is the negative decadic logarithm of the EC50, by convention in mol/L. `NCCS` [cysteamine]: the pEC50 is 4.74.
